Assay results reported in the supplement of paper PMC3334620.
The full ranking holds about 33,000 sequences; the median of “E-score (-0.5 to 0.5)” is about -0.016, and the highest 2% start at about 0.32. Some of the results follow.

These sequences were tested against T1, Stp1 (UniProt B3LFK1) (assay: PBM E-score (8-mer binding enrichment) (E-score (-0.5 to 0.5)); higher = stronger / more preferred TF binding; most listed sequences are background and not binding sites). Settings: protein concentration: 200 nM; construct: GST-full length.
T1 sequence: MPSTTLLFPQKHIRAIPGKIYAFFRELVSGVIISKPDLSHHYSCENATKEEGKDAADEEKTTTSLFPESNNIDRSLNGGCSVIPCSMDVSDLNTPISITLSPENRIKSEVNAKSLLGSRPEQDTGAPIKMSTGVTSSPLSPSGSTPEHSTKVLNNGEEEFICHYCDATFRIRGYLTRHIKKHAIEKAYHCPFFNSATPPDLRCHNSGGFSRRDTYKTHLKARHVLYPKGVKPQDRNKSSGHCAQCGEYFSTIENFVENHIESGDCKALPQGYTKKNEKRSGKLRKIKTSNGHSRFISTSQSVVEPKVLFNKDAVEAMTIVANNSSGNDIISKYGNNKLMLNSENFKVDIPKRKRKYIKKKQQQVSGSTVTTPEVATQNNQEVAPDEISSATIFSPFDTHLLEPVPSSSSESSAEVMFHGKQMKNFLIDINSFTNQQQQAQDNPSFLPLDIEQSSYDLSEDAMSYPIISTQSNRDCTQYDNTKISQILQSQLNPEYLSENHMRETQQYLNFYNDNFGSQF
Method in brief: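 Yeast transcription factors carrying a GST tag, as full-length proteins or DNA-binding domains, were produced by PURExpress in vitro transcription/translation. About 100-200 nM protein was applied to universal all-10-mer Agilent arrays, double-stranded by primer extension on fresh or once-stripped slides. Bound protein was detected with fluorescent anti-GST, and scans were normalised with masliner. The Universal PBM Analysis Suite gave each ungapped eight-base word, pooled with its reverse complement, an E-score, a modified Wilcoxon-Mann-Whitney statistic.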
In the case of ATCGTCTA, the “PBM E-score” value is reported as -0.0813. CGACGTGC was tested, and the “PBM E-score” value was 0.116. CGAACTTA was tested, and the “PBM E-score” value was -0.0262. In the case of CCCCAGAA, the “PBM E-score” value is reported as -0.237. With CACCCACC the “PBM E-score” value was -0.192. TAAGCGCA was tested, and the “PBM E-score” value was -0.185. With ACCAATGG the “PBM E-score” value was -0.0962. With AAGGTATA the “PBM E-score” value was -0.155. With ATCCGCGA the “PBM E-score” value was 0.112. GGTTCACA was tested, and the “PBM E-score” value was 0.00343. For GAGTGCCC, the “PBM E-score” value was -0.0325. With CAGGCGTA the “PBM E-score” value was 0.0281. In the case of ACTTCCCT, the “PBM E-score” value is reported as -0.131. In the case of TAAGTTGA, the “PBM E-score” value is reported as 0.105. In the case of ACAGTCAC, the “PBM E-score” value is reported as -0.292. With GGCATACA the “PBM E-score” value was 0.0925. With CCCAGAGC the “PBM E-score” value was -0.277. For ACTACAAG, the “PBM E-score” value was 0.0276. With ACTTCGCG the “PBM E-score” value was 0.00995. For GATGGACC, the “PBM E-score” value was -0.174. For CGACGCAC, the “PBM E-score” value was 0.0845. With GTTCTCAA the “PBM E-score” value was 0.2. AGCCTATG was tested, and the “PBM E-score” value was -0.0976. ACTTGGCA was tested, and the “PBM E-score” value was -0.072. For GGACTTCA, the “PBM E-score” value was -0.253. CGTAGCAG was tested, and the “PBM E-score” value was -0.0847. In the case of TAAGCCTA, the “PBM E-score” value is reported as 0.00057. With AACTATAA the “PBM E-score” value was 0.111. For CTTCTAAC, the “PBM E-score” value was -0.154. CAGCTCCG was tested, and the “PBM E-score” value was 0.0444. With CTCTAACC the “PBM E-score” value was -0.172. CGCGCACG was tested, and the “PBM E-score” value was 0.154. GACATGAA was tested, and the “PBM E-score” value was 0.00806. With CGCTTTCA the “PBM E-score” value was 0.0783. CTACAAGA was tested, and the “PBM E-score” value was -0.228. With CGTCTGTC the “PBM E-score” value was 0.0901. AATACTCG was tested, and the “PBM E-score” value was -0.0553. For CGTTTTCC, the “PBM E-score” value was -0.00202. CCGCAGAA was tested, and the “PBM E-score” value was 0.207. GCATACGA was tested, and the “PBM E-score” value was 0.0766. For ATGACCCG, the “PBM E-score” value was -0.332. TCTTTGCA was tested, and the “PBM E-score” value was 0.165. With AAGCGTGC the “PBM E-score” value was 0.116. With CATGTAGC the “PBM E-score” value was -0.128. For CTGCCTAA, the “PBM E-score” value was -0.00216. For GGAACAGA, the “PBM E-score” value was -0.057. With ATTTATGG the “PBM E-score” value was 0.19. In the case of CACTTGCC, the “PBM E-score” value is reported as -0.0372. In the case of GCCACCAC, the “PBM E-score” value is reported as 0.0181. For CTCAACCC, the “PBM E-score” value was -0.204. In the case of CATGACCC, the “PBM E-score” value is reported as -0.227. With CTCAGGTC the “PBM E-score” value was -0.196. In the case of CGGGGAAA, the “PBM E-score” value is reported as 0.0657. TGCCATAA was tested, and the “PBM E-score” value was 0.0297. In the case of GAAGTAAC, the “PBM E-score” value is reported as 0.0703. With CACTTACC the “PBM E-score” value was 0.0302. AGTAGAAA was tested, and the “PBM E-score” value was 0.0577. CGATGTTA was tested, and the “PBM E-score” value was 0.0738. In the case of CCTGTGCG, the “PBM E-score” value is reported as -0.0069. In the case of CAACTTAA, the “PBM E-score” value is reported as -0.00078. GTGTGATA was tested, and the “PBM E-score” value was 0.236. With AGGTTTAT the “PBM E-score” value was 0.0618. For TACCCTAA, the “PBM E-score” value was -0.0225. With GTGCAACA the “PBM E-score” value was -0.0404. For ATGATCGA, the “PBM E-score” value was -0.0596. With ACGGATCC the “PBM E-score” value was 0.163. CAATGTGC was tested, and the “PBM E-score” value was 0.0858. In the case of GATATGCA, the “PBM E-score” value is reported as 0.00421. For GATATCCC, the “PBM E-score” value was -0.11. In the case of AATTCACC, the “PBM E-score” value is reported as 0.15. AAGATGGC was tested, and the “PBM E-score” value was 0.0565. For GCGACATA, the “PBM E-score” value was 0.195. AGGGTACC was tested, and the “PBM E-score” value was -0.349. For AAGGAGCG, the “PBM E-score” value was -0.183. With GACGTTAC the “PBM E-score” value was 0.195. GTCTGGAA was tested, and the “PBM E-score” value was -0.0937. For ATCCCTTA, the “PBM E-score” value was -0.136. For TCTTCAAA, the “PBM E-score” value was 0.109. CCATGCTA was tested, and the “PBM E-score” value was -0.117. ATCTGTCG was tested, and the “PBM E-score” value was -0.00104. In the case of GCCGTCTA, the “PBM E-score” value is reported as 0.429. For CATGTTGA, the “PBM E-score” value was 0.158. In the case of AAGACGTG, the “PBM E-score” value is reported as -0.0888. GCATAGTA was tested, and the “PBM E-score” value was 0.211. With AGATTGAT the “PBM E-score” value was 0.121. CTCAGTTC was tested, and the “PBM E-score” value was -0.0626. AGGCACGG was tested, and the “PBM E-score” value was 0.397. ATAATGAG was tested, and the “PBM E-score” value was 0.0115. CACACCTG was tested, and the “PBM E-score” value was -0.16. For GCCTACCA, the “PBM E-score” value was -0.0464. For AAACTGAT, the “PBM E-score” value was 0.0989. For AACCAGTA, the “PBM E-score” value was 0.0911. With ACCATAGA the “PBM E-score” value was 0.0359. In the case of CGTCGATC, the “PBM E-score” value is reported as 0.0306.
